The record followed here is paper PMC4381594.

Protein sequences, listed by entry. Tags and fused reporters are not part of them.
UniProt Q92830: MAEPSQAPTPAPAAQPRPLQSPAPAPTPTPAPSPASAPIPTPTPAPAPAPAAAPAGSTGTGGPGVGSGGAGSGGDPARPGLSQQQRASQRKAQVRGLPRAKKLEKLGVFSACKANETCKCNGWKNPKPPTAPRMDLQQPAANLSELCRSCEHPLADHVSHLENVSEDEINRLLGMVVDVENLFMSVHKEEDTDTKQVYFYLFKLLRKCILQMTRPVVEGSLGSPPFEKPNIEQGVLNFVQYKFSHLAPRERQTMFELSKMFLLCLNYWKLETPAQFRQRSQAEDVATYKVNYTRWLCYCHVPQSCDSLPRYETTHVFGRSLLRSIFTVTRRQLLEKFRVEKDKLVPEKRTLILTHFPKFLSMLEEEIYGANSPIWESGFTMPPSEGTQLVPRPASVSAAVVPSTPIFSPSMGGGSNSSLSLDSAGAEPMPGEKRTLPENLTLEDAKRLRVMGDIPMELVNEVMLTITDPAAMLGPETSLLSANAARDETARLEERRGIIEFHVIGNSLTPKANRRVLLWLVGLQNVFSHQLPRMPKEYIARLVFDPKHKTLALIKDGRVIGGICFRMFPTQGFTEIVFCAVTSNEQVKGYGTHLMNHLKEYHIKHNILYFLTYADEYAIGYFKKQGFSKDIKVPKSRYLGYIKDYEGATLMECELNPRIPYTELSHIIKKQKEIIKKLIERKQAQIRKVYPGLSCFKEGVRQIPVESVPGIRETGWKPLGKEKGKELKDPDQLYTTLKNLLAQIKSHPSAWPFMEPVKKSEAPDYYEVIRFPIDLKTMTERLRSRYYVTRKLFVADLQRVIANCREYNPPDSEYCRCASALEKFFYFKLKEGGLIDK
UniProt Q92831: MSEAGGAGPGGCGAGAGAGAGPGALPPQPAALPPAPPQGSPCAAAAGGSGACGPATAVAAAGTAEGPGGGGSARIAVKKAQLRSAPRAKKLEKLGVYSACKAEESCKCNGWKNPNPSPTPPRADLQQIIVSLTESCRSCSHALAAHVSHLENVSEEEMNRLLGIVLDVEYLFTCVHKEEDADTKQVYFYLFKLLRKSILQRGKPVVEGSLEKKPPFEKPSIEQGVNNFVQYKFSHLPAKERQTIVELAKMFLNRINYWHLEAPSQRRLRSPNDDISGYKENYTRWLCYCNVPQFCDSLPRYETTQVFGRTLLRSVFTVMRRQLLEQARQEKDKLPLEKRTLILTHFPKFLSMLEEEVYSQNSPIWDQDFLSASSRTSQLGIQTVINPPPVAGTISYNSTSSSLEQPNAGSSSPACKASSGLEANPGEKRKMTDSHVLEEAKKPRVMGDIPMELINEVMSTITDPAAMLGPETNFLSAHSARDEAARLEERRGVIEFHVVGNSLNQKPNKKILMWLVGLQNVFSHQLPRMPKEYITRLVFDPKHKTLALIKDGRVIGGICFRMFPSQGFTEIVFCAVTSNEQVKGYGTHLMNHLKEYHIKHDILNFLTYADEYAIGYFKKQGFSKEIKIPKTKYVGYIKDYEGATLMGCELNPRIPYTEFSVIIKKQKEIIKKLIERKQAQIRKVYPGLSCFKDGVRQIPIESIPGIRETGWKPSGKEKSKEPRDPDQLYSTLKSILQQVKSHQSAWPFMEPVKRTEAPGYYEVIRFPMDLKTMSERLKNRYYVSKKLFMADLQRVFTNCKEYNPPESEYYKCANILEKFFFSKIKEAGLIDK

These are yes or no findings as the source states them, for the method shown. In cells and extracts the contact can be indirect. Some results given as binding are weak or reduced against the parent protein; the word gives no strength.

Test [1] addresses T1, endogenous XBP-1S (human (endogenous; cell line not named, all cell lines of the paper are human)) (UniProt P17861).
T1 sequence: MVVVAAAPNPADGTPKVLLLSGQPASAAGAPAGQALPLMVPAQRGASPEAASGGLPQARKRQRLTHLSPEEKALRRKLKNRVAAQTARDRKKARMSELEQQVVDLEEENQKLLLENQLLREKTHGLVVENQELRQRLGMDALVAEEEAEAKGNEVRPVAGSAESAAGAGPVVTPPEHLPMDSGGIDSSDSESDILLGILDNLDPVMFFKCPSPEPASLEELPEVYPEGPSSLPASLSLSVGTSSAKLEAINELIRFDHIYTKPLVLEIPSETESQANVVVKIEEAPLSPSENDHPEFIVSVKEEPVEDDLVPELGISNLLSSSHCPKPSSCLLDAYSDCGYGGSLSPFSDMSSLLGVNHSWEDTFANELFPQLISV
Kind of test: co-IP; endogenous proteins; nuclear extracts of cells treated with 0.1% DMSO (no UPR induction); IP with anti-XBP-1 antibody, Western blot. A general note: Immunoblotting shows a protein as a band on a membrane.

In test [2] the target is T2, XBP-1S, the active isoform of X-box binding protein 1 (human) (UniProt P17861).
T2 sequence: T1 sequence
Description: co-IP; 293T cells co-transfected with expression plasmids; lysates two days after transfection; IP with anti-XBP-1 antibody (Roche IP kit), Western blot (anti-GCN5 or anti-GFP); normal IgG as control.

The target of test [3] is T3, XBP-1U (unspliced isoform of X-box binding protein 1) (human) (UniProt P17861).
T3 sequence: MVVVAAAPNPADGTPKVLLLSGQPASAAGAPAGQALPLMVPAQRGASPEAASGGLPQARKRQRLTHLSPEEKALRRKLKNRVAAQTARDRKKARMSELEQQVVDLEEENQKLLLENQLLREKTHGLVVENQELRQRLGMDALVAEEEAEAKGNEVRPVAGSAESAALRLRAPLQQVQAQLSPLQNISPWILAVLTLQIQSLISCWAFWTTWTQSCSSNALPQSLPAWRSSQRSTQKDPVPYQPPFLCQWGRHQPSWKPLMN
Described as above.

For test [4], the target named is T2, XBP-1S, the active isoform of X-box binding protein 1 (human). Kind of test: co-IP; 293T cells co-transfected with PCAF and XBP-1S vectors with or without a GCN5 plasmid; IP with anti-XBP-1 antibody, immunoblot with anti-PCAF or anti-XBP-1; bands quantified by densitometry, PCAF normalised to precipitated XBP-1S.

Regarding “endogenous GCN5 (from UniProt Q92830 1-837) (enzyme)”, in test [1], the binding result was “binds”. For the substance “general control nonderepressible 5 (GCN5) (from UniProt Q92830 1-837) (enzyme)”, the binding result in test [2] is “binds”; in test [3], “no binding”. Consider “p300/CBP-associated factor (PCAF) (from UniProt Q92831 1-832) (enzyme)”, for which the binding entry in test [4] is listed as “binds”.
